Patent US20230059836A1

Columns and labels:
[1] = target: hCTLA-4-Fc fusion protein having a biotin-label (human) (UniProt P16410); experiment: FACS competition: 0.5 uM biotin hCTLA-4-Fc binding to CHO-human B7-1 cells
[2] = target: Antigen CTLA-4 (SPR analyte) (UniProt P16410); experiment: SPR (Biacore T200), binder captured via Fc, CTLA-4 as analyte

B1: BCP-34 (bispecific antibody, from a related filing, not shown: a dimerising Fc or GST)
chain: EIVLTQSPATLSLSPGERATLSCRASKGVSTSGYSYLHWYQQKPGQAPRLLIYLASYLESGVPARFSGSGSGTDFTLTISSLEPEDFAVYYCQHSRDLPLTFGGGTKVEIKGGGGSGGGGSGGGGSQVQLVQSGVEVKKPGASVKVSCKASGYTFTNYYMYWVRQAPGQGLEWMGGINPSNGGTNFNEKFKNRVTLTTDSSTTTAYMELKSLQFDDTAVYYCARRDYRFDMGFDYWGQGTTVTVSSEPKSCDKTHTCPPCPQVKLEESGGGLVLPGESLRLSCEASGRTITTITMGWFRQAPGKERQFVASHSWTDNNPYYADSVKGRFIISRDNAGNRVYLQMHSLEPEDTAVYYCAATARRSFVGRQWYTEARQYDYWGQGTQVTVSS[sequence of human IgG1 Fc not given]
[1]
  IC50: 18.6 nM
[2]
  Kd: 6.3 nM
